The text below walks through data of publication PMC9911399, “Two distinct binding modes provide the RNA-binding protein RbFox with extraordinary sequence specificity”.

T1: RBFOX1 RRM RbFoxmut (Fox-RRM*) (Homo sapiens, UniProt Q9NWB1 109-208, R118D;E147R;N151S;E152T)
T1 sequence: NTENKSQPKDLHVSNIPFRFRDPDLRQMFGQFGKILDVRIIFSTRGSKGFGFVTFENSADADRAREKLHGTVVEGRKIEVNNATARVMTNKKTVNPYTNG

B1: CGUAACU (DNA:RNA)
RNA: GGGAGACCGGAAUUCAGAUUGUCCCGUAACUUUAAAUCCCGUCGUAGCCACCA
DNA 1: CAATCTGAATTCCGGTCTCCC
DNA 2: TGGTGGCTACGACGGGATT
B2: UUGAGGC (DNA:RNA)
RNA: B1 RNA with C25U, G26U, U27G, A29G, C30G, U31C
DNA 1: CAATCTGAATTCCGGTCTCCC
DNA 2: TGGTGGCTACGACGGGATT
B3: CGGCGGU (DNA:RNA)
RNA: B1 RNA with U27G, A28C, A29G, C30G
DNA 1: CAATCTGAATTCCGGTCTCCC
DNA 2: TGGTGGCTACGACGGGATT
B4: GCUGCUU (DNA:RNA)
RNA: B1 RNA with C25G, G26C, A28G, A29C, C30U
DNA 1: CAATCTGAATTCCGGTCTCCC
DNA 2: TGGTGGCTACGACGGGATT
B5: CAACCUG (DNA:RNA)
RNA: B1 RNA with G26A, U27A, A28C, A29C, C30U, U31G
DNA 1: CAATCTGAATTCCGGTCTCCC
DNA 2: TGGTGGCTACGACGGGATT
B6: CAGGGAA (DNA:RNA)
RNA: B1 RNA with G26A, U27G, A28G, A29G, C30A, U31A
DNA 1: CAATCTGAATTCCGGTCTCCC
DNA 2: TGGTGGCTACGACGGGATT
B7: AGCUCUU (DNA:RNA)
RNA: B1 RNA with C25A, U27C, A28U, A29C, C30U
DNA 1: CAATCTGAATTCCGGTCTCCC
DNA 2: TGGTGGCTACGACGGGATT
B8: CUAGUUC (DNA:RNA)
RNA: B1 RNA with G26U, U27A, A28G, A29U, C30U, U31C
DNA 1: CAATCTGAATTCCGGTCTCCC
DNA 2: TGGTGGCTACGACGGGATT
B9: CAAUUUA (DNA:RNA)
RNA: B1 RNA with G26A, U27A, A28U, A29U, C30U, U31A
DNA 1: CAATCTGAATTCCGGTCTCCC
DNA 2: TGGTGGCTACGACGGGATT
B10: GUACGCA (DNA:RNA)
RNA: B1 RNA with C25G, G26U, U27A, A28C, A29G, U31A
DNA 1: CAATCTGAATTCCGGTCTCCC
DNA 2: TGGTGGCTACGACGGGATT
B11: UUCAAGG (DNA:RNA)
RNA: B1 RNA with C25U, G26U, U27C, C30G, U31G
DNA 1: CAATCTGAATTCCGGTCTCCC
DNA 2: TGGTGGCTACGACGGGATT
B12: CUCCUAU (DNA:RNA)
RNA: B1 RNA with G26U, U27C, A28C, A29U, C30A
DNA 1: CAATCTGAATTCCGGTCTCCC
DNA 2: TGGTGGCTACGACGGGATT
B13: AGCUUCG (DNA:RNA)
RNA: B1 RNA with C25A, U27C, A28U, A29U, U31G
DNA 1: CAATCTGAATTCCGGTCTCCC
DNA 2: TGGTGGCTACGACGGGATT
B14: GUCAGCC (DNA:RNA)
RNA: B1 RNA with C25G, G26U, U27C, A29G, U31C
DNA 1: CAATCTGAATTCCGGTCTCCC
DNA 2: TGGTGGCTACGACGGGATT
B15: AGACCGA (DNA:RNA)
RNA: B1 RNA with C25A, U27A, A28C, A29C, C30G, U31A
DNA 1: CAATCTGAATTCCGGTCTCCC
DNA 2: TGGTGGCTACGACGGGATT
B16: AAUGUUC (DNA:RNA)
RNA: B1 RNA with C25A, G26A, A28G, A29U, C30U, U31C
DNA 1: CAATCTGAATTCCGGTCTCCC
DNA 2: TGGTGGCTACGACGGGATT
B17: AAGGGGA (DNA:RNA)
RNA: GGGAGACCGGAAUUCAGAUUGUCCAAGGGGAUUAAAUCCCGUCGUAGCCACCA
DNA 1: CAATCTGAATTCCGGTCTCCC
DNA 2: TGGTGGCTACGACGGGATT
B18: GGCGAGU (DNA:RNA)
RNA: B1 RNA with C25G, U27C, A28G, C30G
DNA 1: CAATCTGAATTCCGGTCTCCC
DNA 2: TGGTGGCTACGACGGGATT
B19: GAGGGUC (DNA:RNA)
RNA: B17 RNA with A25G, G30U, A31C
DNA 1: CAATCTGAATTCCGGTCTCCC
DNA 2: TGGTGGCTACGACGGGATT
B20: CACGUGC (DNA:RNA)
RNA: B17 RNA with A25C, G27C, G29U, A31C
DNA 1: CAATCTGAATTCCGGTCTCCC
DNA 2: TGGTGGCTACGACGGGATT

Residue numbers refer to the chain shown, from its start. This is one part of the list.

The assay addresses T1, RBFOX1 RRM RbFoxmut (Fox-RRM*). Briefly: EMSA; HiTS-Eq, 1 nM pool, 10 min; buffer printed only for the single-RNA assays: 10 mM Tris pH 7.5, 150 mM NaCl, 3.4 mM EDTA, 0.001% NP-40, 30 C. The conditions noted are these: tags: His6 N-terminal (pET28a); label: 5' 32P. The essentials:
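These values rest on relative association constants, computed from read-count changes of each RNA species versus the control reaction and normalised to the cognate motif. Reads came from free RNA recovered by 8% native PAGE after purified RbFox RRM (wild type or mutant) at increasing concentrations was equilibrated for 10 min in 50 µL with 1 nM of a 5′-radiolabelled pool with 7 randomized nucleotides and DNA-annealed flanks.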
On the technique in general: In EMSA bound probe runs differently from free probe, usually more slowly.
With B1, the binding signal was 0.0972 KA relative to UGCAUGU. As for B2, the figure is 0.08 KA relative to UGCAUGU; as for B3, 0.119 KA relative to UGCAUGU.

For the molecule B4, the binding signal is 0.0803 KA relative to UGCAUGU.

As for B5, the binding signal was 0.057 KA relative to UGCAUGU. With B6, the binding signal was 0.121 KA relative to UGCAUGU. In the case of B7 it was 0.0707 KA relative to UGCAUGU.

Take B8: the binding signal is 0.0809 KA relative to UGCAUGU.

In the case of B9, the binding signal was 0.12 KA relative to UGCAUGU. With B10, the binding signal is 0.181 KA relative to UGCAUGU.

B11: the binding signal is 0.0713 KA relative to UGCAUGU. B12: the binding signal was 0.0911 KA relative to UGCAUGU. As for B13, the figure is 0.135 KA relative to UGCAUGU; as for B14, 0.0902 KA relative to UGCAUGU. In the case of B15 it was 0.112 KA relative to UGCAUGU.

On to B16, for which the binding signal was 0.0951 KA relative to UGCAUGU. For the molecule B17, the binding signal was 0.0737 KA relative to UGCAUGU. As for B18, the figure is 0.0945 KA relative to UGCAUGU; as for B19, 0.153 KA relative to UGCAUGU. As for B20, the binding signal is 0.135 KA relative to UGCAUGU.
